Laboratory results from the CheMixHub viscosity set.
Where “and” joins values, the source holds several entries; their conditions need not be identical. Equal values may be shown once. This continues a long series; more values of the same kind are listed elsewhere.

Experiment: xn = mol fraction of the nth substance listed

C[C@H](N)C(=O)O + O
viscosity
Conditions	293.15 K	298.15 K	303.15 K	308.15 K	313.15 K	318.15 K
100 kPa, x1 = 0.0004	–	–	0.8034 mPa·s	0.7261 mPa·s	0.6608 mPa·s	–
100 kPa, x1 = 0.0007	–	–	0.8057 mPa·s	–	0.6633 mPa·s	–
100 kPa, x1 = 0.001	–	–	0.8081 mPa·s and 0.8105 mPa·s	0.7308 mPa·s and 0.7333 mPa·s	0.6658 mPa·s	–
100 kPa, x1 = 0.0018	–	0.9055 mPa·s	0.8128 mPa·s	0.7356 mPa·s	0.6703 mPa·s	–
100 kPa, x1 = 0.0022	–	–	0.8155 mPa·s	–	0.6725 mPa·s	–
101 kPa, x1 = 9e-05	–	0.901 mPa·s	0.8083 mPa·s	–	0.666 mPa·s	–
101 kPa, x1 = 0.00018	–	–	0.8131 mPa·s	0.7348 mPa·s	0.6702 mPa·s	–
101 kPa, x1 = 0.00027	–	0.9106 mPa·s	0.8196 mPa·s	0.7317 mPa·s	0.6774 mPa·s	–
101 kPa, x1 = 0.00036	–	0.9167 mPa·s	0.8258 mPa·s	–	0.6848 mPa·s	–
101 kPa, x1 = 0.0004	–	–	0.8 mPa·s	0.722 mPa·s	0.655 mPa·s	0.599 mPa·s
101 kPa, x1 = 0.00045	1.008 mPa·s	0.8958 mPa·s	0.8024 mPa·s	0.7238 mPa·s	0.6571 mPa·s	0.6014 mPa·s
101 kPa, x1 = 0.0007	–	–	0.804 mPa·s	0.726 mPa·s	0.659 mPa·s	0.602 mPa·s
101 kPa, x1 = 0.0009	1.014 mPa·s	0.9014 mPa·s	0.8076 mPa·s	0.7287 mPa·s	0.6617 mPa·s	0.6057 mPa·s
101 kPa, x1 = 0.001	–	–	0.807 mPa·s and 0.811 mPa·s	0.729 mPa·s and 0.733 mPa·s	0.661 mPa·s and 0.664 mPa·s	0.604 mPa·s and 0.607 mPa·s
101 kPa, x1 = 0.00135	1.02 mPa·s	0.907 mPa·s	0.8128 mPa·s	0.7336 mPa·s	0.6663 mPa·s	0.61 mPa·s
101 kPa, x1 = 0.0018	–	0.9126 mPa·s	0.816 mPa·s and 0.818 mPa·s	0.736 mPa·s	0.6708 mPa·s	0.61 mPa·s and 0.6144 mPa·s
101 kPa, x1 = 0.002245	–	–	0.8233 mPa·s	0.7434 mPa·s	0.6755 mPa·s	0.6188 mPa·s
101 kPa, x1 = 0.002695	1.038 mPa·s	0.9239 mPa·s and 0.923 mPa·s	0.8286 mPa·s	0.7483 mPa·s	0.6801 mPa·s	0.6231 mPa·s
101 kPa, x1 = 0.00359	–	0.935 mPa·s	–	–	–	–
101 kPa, x1 = 0.004484	–	0.946 mPa·s	–	–	–	–
101 kPa, x1 = 0.006266	–	0.97 mPa·s	–	–	–	–

OC[C@H]1O[C@H](O[C@H]2[C@H](O)[C@@H](O)C(O)O[C@@H]2CO)[C@H](O)[C@@H](O)[C@@H]1O (stereo not given in full) + O
viscosity [mPa·s]
Conditions	293.15 K	298.15 K	303.15 K	308.15 K	313.15 K
100 kPa, x1 = 0.000179	1.019	0.9	0.807	0.721	0.657
100 kPa, x1 = 0.0005382	1.027	0.911	0.816	0.733	0.667
100 kPa, x1 = 0.0008969	1.038	0.922	0.827	0.742	0.675
100 kPa, x1 = 0.001255	1.049	0.931	0.832	0.747	0.68
100 kPa, x1 = 0.001614	1.059	0.94	0.84	0.755	0.686
101.3 kPa, x1 = 0.002	1.11	0.987	0.887	0.799	0.728
101.33 kPa, x1 = 0.00359	–	1.072	–	–	–
101.33 kPa, x1 = 0.007154	–	1.294	–	–	–
101.33 kPa, x1 = 0.01069	–	1.565	–	–	–
101.33 kPa, x1 = 0.01421	–	1.894	–	–	–
101.33 kPa, x1 = 0.0177	–	2.289	–	–	–
101.33 kPa, x1 = 0.02116	–	2.775	–	–	–

CCOCCO + O
Conditions	viscosity [mPa·s]
298.15 K, 101 kPa, x1 = 0.0109	1.07
298.15 K, 101 kPa, x1 = 0.0249	1.316
298.15 K, 101 kPa, x1 = 0.0499	1.781
298.15 K, 101 kPa, x1 = 0.075	2.226
298.15 K, 101 kPa, x1 = 0.1007	2.616
298.15 K, 101 kPa, x1 = 0.1486	3.152
298.15 K, 101 kPa, x1 = 0.203	3.473
308.15 K, 101.33 kPa, x1 = 0.0104	0.83
308.15 K, 101.33 kPa, x1 = 0.0217	0.98
308.15 K, 101.33 kPa, x1 = 0.0341	1.12
308.15 K, 101.33 kPa, x1 = 0.0476	1.31
308.15 K, 101.33 kPa, x1 = 0.0625	1.49
308.15 K, 101.33 kPa, x1 = 0.0789	1.69
308.15 K, 101.33 kPa, x1 = 0.0972	1.88
308.15 K, 101.33 kPa, x1 = 0.1176	2.07
313.15 K, 101.33 kPa, x1 = 0.0104	0.74
313.15 K, 101.33 kPa, x1 = 0.0217	0.85
313.15 K, 101.33 kPa, x1 = 0.0341	0.97
313.15 K, 101.33 kPa, x1 = 0.0476	1.12
313.15 K, 101.33 kPa, x1 = 0.0625	1.27
313.15 K, 101.33 kPa, x1 = 0.0789	1.43
313.15 K, 101.33 kPa, x1 = 0.0972	1.58
313.15 K, 101.33 kPa, x1 = 0.1176	1.73
313.15 K, 101.33 kPa, x1 = 0.1666	1.99
313.15 K, 101.33 kPa, x1 = 0.1964	2.08
313.15 K, 101.33 kPa, x1 = 0.2307	2.17
313.15 K, 101.33 kPa, x1 = 0.2707	2.21
313.15 K, 101.33 kPa, x1 = 0.3181	2.21
313.15 K, 101.33 kPa, x1 = 0.3749	2.17
313.15 K, 101.33 kPa, x1 = 0.4443	2.09
313.15 K, 101.33 kPa, x1 = 0.6428	1.78
313.15 K, 101.33 kPa, x1 = 0.7916	1.56
318.15 K, 101.33 kPa, x1 = 0.0104	0.68
318.15 K, 101.33 kPa, x1 = 0.0217	0.78
318.15 K, 101.33 kPa, x1 = 0.0341	0.87
318.15 K, 101.33 kPa, x1 = 0.0476	0.99
318.15 K, 101.33 kPa, x1 = 0.0625	1.1
318.15 K, 101.33 kPa, x1 = 0.0789	1.23
318.15 K, 101.33 kPa, x1 = 0.1176	1.41
318.15 K, 101.33 kPa, x1 = 0.1406	1.51
318.15 K, 101.33 kPa, x1 = 0.1666	1.61
318.15 K, 101.33 kPa, x1 = 0.1964	1.68
318.15 K, 101.33 kPa, x1 = 0.2307	1.75
318.15 K, 101.33 kPa, x1 = 0.2707	1.77
318.15 K, 101.33 kPa, x1 = 0.3181	1.77
318.15 K, 101.33 kPa, x1 = 0.3749	1.75
318.15 K, 101.33 kPa, x1 = 0.4443	1.7
318.15 K, 101.33 kPa, x1 = 0.5311	1.61
318.15 K, 101.33 kPa, x1 = 0.6428	1.49
